According to PubChem BioAssay AID602310 (National Center for Advancing Translational Sciences (NCATS), 2012):
The campaign covered roughly 410,000 compounds. About 310 (0.076%) were called active. The shares of active, inactive and inconclusive entries below differ from those in the screen. Calls follow the shape of the dose curve; as a rule, active = well fitted curve in the direction sought with a large enough effect; inconclusive = small, poorly fitted or top-dose-only effect; inactive = flat fitted curve, though single readings scatter. Potencies of inconclusive entries are doubtful fits and often do not repeat.
% is scaled to controls: 0 for no effect and ±100 for the full control effect; potency is read from the fitted curve at half-maximal effect; tags tell the direction and shape of the fitted curve.
Also: nearly all actives have a fitted effect of over 60% in size.
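For activity, negative = active in this document: hits raise eYFP signal because A3G escapes Vif-driven loss.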

Each compound was assayed against DNA dC->dU-editing enzyme APOBEC-3G (Homo sapiens) (UniProt Q9HC16) (assay: qHTS for Inhibitors of Vif-A3G Interactions: qHTS). Conditions: HeLa A3G-eYFP + Vif (tagged APOBEC3G with the HIV-1 protein that degrades it), YFP fluorescence, overnight; series mostly up to 46.1 µM; activity, negative = active: at the top concentration.
Sequence of UniProt Q9HC16 (Q9HC16 whole entry, looked up): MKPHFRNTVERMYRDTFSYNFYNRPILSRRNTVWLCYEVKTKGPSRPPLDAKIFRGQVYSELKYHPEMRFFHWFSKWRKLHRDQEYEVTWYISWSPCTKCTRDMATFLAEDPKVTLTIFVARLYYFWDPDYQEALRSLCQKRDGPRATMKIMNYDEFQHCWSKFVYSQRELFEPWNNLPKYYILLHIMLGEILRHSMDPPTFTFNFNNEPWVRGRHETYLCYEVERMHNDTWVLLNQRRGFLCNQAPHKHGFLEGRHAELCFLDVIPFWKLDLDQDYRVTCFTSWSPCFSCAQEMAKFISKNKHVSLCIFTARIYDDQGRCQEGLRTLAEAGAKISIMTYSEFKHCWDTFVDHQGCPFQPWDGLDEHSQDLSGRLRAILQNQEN
Procedure, shortened: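 Read-out is eYFP fluorescence (Ex 488/Em 500-530) from Vif-expressing HeLa A3G-eYFP cells; more signal means A3G escaped Vif-mediated degradation. Cells plated overnight, compound pinned in, incubated overnight at 37 deg C.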
In the case of `COc1ccc(-c2cnc3c(NC(C)=O)cc(-c4ccsc4)cn23)cc1OC`, the Potency was inconclusive: 20 µM [inhibitor, single point]. For `CCN(CC)c1ccc(/C=C(/C#N)c2nc3ccccc3[nH]2)c(OC(C)C)c1`, the Potency was inconclusive: 1.41 µM [inhibitor, full curve, poor fit]. `CCN(CC)CCNC(=O)c1nn(-c2ccc(Cl)cc2)c2c1CCc1cc(OC)ccc1-2` was tested, and the Potency was inconclusive: 35.5 µM [inhibitor, single point]. For `CN(C)c1ccc2ccc3cccc4ccc1c2c34`, the Potency was inconclusive: 15.8 µM [inhibitor, partial curve, poor fit]. For `COc1ccc(/C=N/NC(=O)c2ccc(CSc3nc(C)cc(C)n3)cc2)c(OC)c1OC`, the Potency was inconclusive: 22.4 µM [inhibitor, single point]. In the case of `COc1ccc(CNC(=O)CSc2ccsc2[N+](=O)[O-])cc1`, the “activity, negative = active” value was inactive: -4.86%. For `O=C(N/N=C/c1ccc(O)cc1)c1[nH]c2ccc(Br)cc2c1-c1ccccc1`, the Potency was inconclusive: 3.16 µM [inhibitor, single point]. `C=CCNC(=S)NNc1nc2c(c(=O)[nH]1)C1(CCCC1)Cc1ccccc1-2` was tested, and the “activity, negative = active” value was inactive: 1.55%. For `CCOC(=O)Cc1nnc(Nc2cccc(C)c2)c2ccccc12`, the “activity, negative = active” value was inactive: 0.534%. For `COCc1cc(C)nc(OCC(=O)N/N=C/c2cc(C)n(-c3c(C)cccc3C)c2C)c1C#N`, the Potency was inconclusive: 22.4 µM [inhibitor, single point]. With `O=C1NC[C@H](Cc2ccccc2)N(C[C@H]2CCCN2C[C@H](Cc2ccccc2)N2C[C@H](Cc3ccccc3)N(CC3CCCCC3)C(=O)C2=O)C1=O` the Potency was inconclusive: 35.5 µM [inhibitor, single point]. `Cc1ccc(N/C(N)=N/c2nc(CSc3nnc(C)s3)cc(=O)[nH]2)c(C)c1` was tested, and the Potency was inconclusive: 1.78 µM [inhibitor, full curve, poor fit]. `CCOC(=O)N1CCN(C(=O)c2ccccc2-c2ccccc2)CC1` was tested, and the Potency was inconclusive: 8.91 µM [inhibitor, partial curve]. For `COc1cc(-c2nnc(SCC(=O)Oc3ccccc3)o2)cc(OC)c1OC`, the “activity, negative = active” value was inactive: 4.95%. In the case of `COc1ccccc1OCC(=O)NNC(=O)Nc1ccc(Cl)cc1`, the Potency was inconclusive: 3.98 µM [inhibitor, full curve]. With `COc1ccc(CCN2CCCn3c2nc2c3c(=O)[nH]c(=O)n2C)cc1OC` the Potency was inconclusive: 35.5 µM [inhibitor, single point]. In the case of `CCN(CC)c1ccc(/C=N/NC(=O)c2cnccn2)cc1`, the Potency was inconclusive: 35.5 µM [inhibitor, single point]. `O=c1[nH]nc(CNc2ccc(O)cc2)c2ccccc12` was tested, and the “activity, negative = active” value was inactive: -1.74%. For `Oc1ccccc1C1CC(c2cccs2)=NC(c2ccc(Cl)cc2)N1` (stereo not drawn), the Potency was inconclusive: 35.5 µM [inhibitor, single point]. `CCCCNS(=O)(=O)c1cc(-c2nn(C)c(=O)c3ccccc23)ccc1C` was tested, and the Potency was inconclusive: 35.5 µM [inhibitor, single point]. With `Cc1cc2c(cc(C(=O)OCC(=O)NCc3cccs3)n2C(C)C)o1` the Potency was inconclusive: 0.794 µM [inhibitor, full curve, poor fit]. For `Cc1c(N2C(=O)/C(=C/c3ccccc3)SC2=S)c(=O)n(-c2ccccc2)n1C`, the “activity, negative = active” value was inactive: 0.107%. For `COc1ccc(C(=O)Nc2cc(C(C)=O)c(/C=C/N(C)C)oc2=O)cc1`, the Potency was inconclusive: 10 µM [inhibitor, partial curve]. `O=C(NC(=S)N1CCN(C/C=C/c2ccccc2)CC1)c1ccco1` was tested, and the “activity, negative = active” value was inactive: 0.298%. `Cc1cccc(COc2ccccc2/C=N/Nc2ccc([N+](=O)[O-])cc2)c1` was tested, and the Potency was inconclusive: 35.5 µM [inhibitor, single point]. With `CCCCN(CC)C(=O)c1cc2c(=O)n3cccc(C)c3nc2s1` the Potency was “inactive”. For `Cc1ccccc1NC(=O)CSc1nc2cc3c(cc2cc1C)CCC3`, the Potency was inconclusive: 1.26 µM [inhibitor, full curve]. With `CCCCCCCCS(=O)CCC(=O)O` (stereo not drawn) the “activity, negative = active” value was inactive: -2.21%. In the case of `CCOc1ncccc1C(=O)NCc1ccc(OC)cc1`, the Potency was inconclusive: 7.94 µM [inhibitor, partial curve]. In the case of `NS(=O)(=O)c1ccc2nc(NC(=O)COc3ccc(Cl)cc3Cl)sc2c1`, the “activity, negative = active” value was inactive: -22%. For `COCCNC(=O)c1ccc2c(c1)N=C(C)c1cc(C)ccc1S2`, the Potency was inconclusive: 0.355 µM [inhibitor, full curve, poor fit]. In the case of `C#CCOCCOCCOCCNc1nc(N2CCN(C(=O)[C@H]([C@@H](C)CC)n3cc(CCC(=O)O)nn3)CC2)nc(N2CCN(C(=O)[C@H](C)n3cc(CCCN=C(N)N)nn3)CC2)n1`, the “activity, negative = active” value was inactive: 1.55%. In the case of `Cc1nc(-c2ccc(NC(=O)c3ccccc3)cc2)cs1`, the “activity, negative = active” value was inactive: -1.91%. For `CC1=Nc2cc(C(=O)NCCc3ccc(Cl)cc3)ccc2Sc2c(C)ccc(C)c21`, the Potency was inconclusive: 0.562 µM [inhibitor, full curve, poor fit]. `COc1ccc(CCn2c(-n3nc(C)cc3C)nc3c2c(=O)[nH]c(=O)n3C)cc1` was tested, and the Potency was inconclusive: 0.891 µM [inhibitor, full curve, poor fit]. With `O=S(=O)(c1ccc2c(c1)OCCO2)N1CCC(n2cnc3cc(F)ccc32)CC1` the “activity, negative = active” value was inactive: -1.01%. With `O=C(CCl)Nc1ccc2c(c1)OCO2` the Potency was inconclusive: 35.5 µM [inhibitor, single point]. In the case of `Cc1ccc(-c2ccc(/C=C/C(=O)c3ccccc3)o2)cc1`, the Potency was inconclusive: 25.1 µM [inhibitor, single point]. For `O=C(O)Cn1c2ccccc2c2nc3ccccc3nc21`, the Potency was inconclusive: 6.31 µM [inhibitor, partial curve, poor fit]. `O=Cc1ccccc1OCc1ccc2c(c1)OCO2` was tested, and the “activity, negative = active” value was inactive: -31.5%. With `CCOc1ccc2c(c1)n([O-])c1c([n+]2=O)CCCC1` the “activity, negative = active” value was inactive: -2.13%. In the case of `COc1ccc(C(=O)/C=C/Nc2cc(C)on2)c(OC)c1`, the “activity, negative = active” value was inactive: -3.92%. In the case of `O=C(O)c1cc(S(=O)(=O)N(Cc2ccccc2)c2ccc(Cl)cc2)ccc1Cl`, the “activity, negative = active” value was inactive: -4.54%. In the case of `Cn1c(=O)c2cc(NC(=O)NCc3ccc(F)cc3)ccc2n1C/C=C/c1ccccc1`, the Potency was inconclusive: 2.82 µM [inhibitor, full curve, poor fit]. For `O=S(=O)(Nc1nc2ccccc2nc1N1CCN(c2ccccc2)CC1)c1ccc(F)cc1`, the Potency was inconclusive: 35.5 µM [inhibitor, single point]. With `O=C1C(=C(O)c2ccccc2)C(=O)c2ccccc21` the Potency was inconclusive: 31.6 µM [inhibitor, single point]. For `COc1cccc(/C=N/NC(=O)c2cc3cc([N+](=O)[O-])ccc3s2)c1O`, the Potency was inconclusive: 20 µM [inhibitor, single point]. With `Cc1ccc(Cl)cc1NC(=S)N/N=C/c1cccc2ccccc12` the Potency was inconclusive: 1.26 µM [inhibitor, full curve, poor fit]. In the case of `COc1ccccc1NC(=O)CON=C(N)CC(=O)NC1CCCCC1`, the Potency was inconclusive: 17.8 µM [inhibitor, single point]. For `Cc1cccc(CNC(=O)c2ccc(NC(=O)N3CCSc4ccccc43)cc2)c1`, the “activity, negative = active” value was inactive: 2.33%. `COc1ccc2oc(-c3ccccc3[N+](=O)[O-])cc(=O)c2c1` was tested, and the Potency was inconclusive: 7.08 µM [inhibitor, partial curve, poor fit]. In the case of `COc1cc(OC)c(N2CC(C(=O)Nc3cc(Cl)ccc3N3CCOCC3)CC2=O)cc1Cl` (stereo not drawn), the Potency was inconclusive: 2.82 µM [inhibitor, full curve, poor fit]. In the case of `CS(=O)(=O)Nc1ccc(C2=NN(S(=O)(=O)c3ccccc3)C(c3cccs3)C2)cc1` (stereo not drawn), the Potency was inconclusive: 14.1 µM [inhibitor, single point]. `Cc1ccc(Cl)c(OCC(=O)Nc2ccccc2C(=O)NC2CC2)c1` was tested, and the “activity, negative = active” value was inactive: -7.48%. For `O=[N+]([O-])c1ccc(N/N=C/c2cccc(O)c2O)cc1`, the Potency was inconclusive: 22.4 µM [inhibitor, partial curve, poor fit]. For `CCOC(=O)N1CCN(C(=S)Nc2cc(S(=O)(=O)N3CCOCC3)ccc2Cl)CC1`, the Potency was inconclusive: 3.16 µM [inhibitor, single point]. `O=S(=O)(Nc1nc2ccccc2nc1N1CCN(c2ccccn2)CC1)c1ccc(Cl)cc1` was tested, and the Potency was inconclusive: 12.6 µM [inhibitor, partial curve]. With `C/C(CC(=O)Nc1ccc(C)c(Cl)c1)=N\NC(=O)Cc1ccccc1` the “activity, negative = active” value was inactive: -8.31%. In the case of `CCOc1ccccc1NC(c1nnc(-c2ccccc2)o1)c1ccc(F)cc1Cl` (stereo not drawn), the “activity, negative = active” value was inactive: -1.53%. `Cn1c(=O)c(=O)n(C)c2cc([N+](=O)[O-])c([N+](=O)[O-])cc21` was tested, and the Potency was inconclusive: 15.8 µM [inhibitor, single point]. `COc1ccc(-c2cc(C(=O)OCC(=O)c3c(N)n(C)c(=O)n(C)c3=O)c3ccccc3n2)cc1` was tested, and the “activity, negative = active” value was inactive: -1.93%. In the case of `Cc1ccc(CNc2cc(C)nc3nc(-c4cccc(C)c4)nn23)cc1`, the “activity, negative = active” value was inactive: -4.49%. In the case of `O=C(/C=C/c1cccc([N+](=O)[O-])c1)c1cccs1`, the Potency was inconclusive: 15.8 µM [inhibitor, partial curve, poor fit]. `CCCCN(CC)CCCNC(=O)c1ccc(CS(=O)(=O)c2c(Cl)cccc2Cl)o1` was tested, and the “activity, negative = active” value was inactive: -0.383%. For `O=C(/C=C/c1ccc([N+](=O)[O-])cc1)c1cccnc1`, the Potency was inconclusive: 22.4 µM [inhibitor, partial curve, poor fit]. `COc1ccc(NC(=O)CSc2nc(-c3ccco3)nc3cc(=O)[nH]n23)cc1Cl` was tested, and the Potency was inconclusive: 35.5 µM [inhibitor, single point]. For `COc1ccc(Cn2c(SCc3ccc(C)cc3)nc3cc(OC)c(OC)cc3c2=N)cc1Cl`, the Potency was inconclusive: 3.16 µM [inhibitor, full curve, poor fit]. With `O=S(=O)(c1cnc(Cl)c(Cl)c1)N1CCc2ccccc21` the Potency was inconclusive: 22.4 µM [inhibitor, single point].
